# Measurements taken from patent US11999716B2, “WDR5 inhibitors and modulators” (priority 2018, dated 2024).
# Molecular target: WDR5 (Homo sapiens, UniProt P61964)
# Experiment: biochemical
# Format: binding
# Settings: WDR5-His tag (Δ23, residues 24-334) 2 nM; 10mer-Thr-FAM probe 150 nM; Tb-anti-HIS 1 nM; 60 min, room temperature; read-out: Ki for Inhibition of WDR5 by TR-FRET assay
row,Ki [nM],Compound
1,< 0.05,CCn1cc(-c2cc(Cn3ccn(C)c3=N)cc3c2CCN(Cc2cc(C)nn2C)C3=O)c(C(F)(F)F)n1 [Example 74]
2,2,"COc1cc(CN2CCc3c(cc(Cn4ccn(C)c4=N)cc3-c3c(C)nn(C)c3C)C2=O)cc(OC)c1 [Example 64, 2-(3,5-Dimethoxybenzyl)-7-((2-imino-3-methyl-2,3-dihydro-1H-imidazol-1-yl)methyl)-5-(1,3,5-trimethyl-1H-pyrazol-4-yl)-3,4-dihydroisoquinolin-1(2H)-one]"
3,< 0.05,"Cc1nccn1Cc1cc2c(c(-c3cn(C)nc3C(F)(F)F)c1)CCN(Cc1cc(Br)cc3c1OCC3)C2=O [Example 216, 2-((5-Bromo-2,3-dihydrobenzofuran-7-yl)methyl)-7-((2-methyl-1H-imidazol-1-yl)methyl)-5-(1-methyl-3-(trifluoromethyl)-1H-pyrazol-4-yl)-3,4-dihydroisoquinolin-1(2H)-one]"
4,2.4,CCn1cc(-c2cc(Cn3ccnc3C#N)cc3c2CCN([C@@H](C)c2cc(OC)ccn2)C3=O)c(C(F)(F)F)n1 [Example 179]
5,< 0.05,"COc1ccnc(CN2CCc3c(cc(Cn4ccn(C)c4=N)cc3-c3cn(C)nc3C)C2=O)c1 [Example 42, 5-(1,3-Dimethyl-1H-pyrazol-4-yl)-7-((2-imino-3-methyl-2,3-dihydro-1H-imidazol-1-yl)methyl)-2-((4-methoxypyridin-2-yl)methyl)-3,4-dihydroisoquinolin-1(2H)-one]"
6,0.03,"COc1ccnc(CN2CCc3c(cc(Cn4ccn(C)c4=N)cc3-c3cccnc3C)C2=O)c1 [Example 60, 7-((2-Imino-3-methyl-2,3-dihydro-1H-imidazol-1-yl)methyl)-2-((4-methoxypyridin-2-yl)methyl)-5-(2-methylpyridin-3-yl)-3,4-dihydroisoquinolin-1(2H)-one]"
7,< 0.05,"Cc1ccnc(CN2CCc3c(cc(Cn4ccn(C5CC5)c4=N)cc3-c3cn(C)nc3C(F)(F)F)C2=O)c1 [Example 51, 7-((3-Cyclopropyl-2-imino-2,3-dihydro-1H-imidazol-1-yl)methyl)-5-(1-methyl-3-(trifluoromethyl)-1H-pyrazol-4-yl)-2-((4-methylpyridin-2-yl)methyl)-3,4-dihydroisoquinolin-1(2H)-one]"
8,0.075,"Cc1nnc(CN2CCc3c(cc(Cn4ccnc4C)cc3-c3cn(C)nc3C(F)(F)F)C2=O)s1 [Example 174, 2-((5-Methyl-1,3,4-thiadiazol-2-yl)methyl)-7-((2-methyl-1H-imidazol-1-yl)methyl)-5-(1-methyl-3-(trifluoromethyl)-1H-pyrazol-4-yl)-3,4-dihydroisoquinolin-1(2H)-one]"
9,< 0.05,"Cc1nccn1Cc1cc2c(c(-c3cn(C)nc3C(F)(F)F)c1)CCN(Cc1cccc(C3CC3)c1)C2=O [Example 234, 2-(3-Cyclopropylbenzyl)-7-((2-methyl-1H-imidazol-1-yl)methyl)-5-(1-methyl-3-(trifluoromethyl)-1H-pyrazol-4-yl)-3,4-dihydroisoquinolin-1(2H)-one]"
10,0.22,"COc1ccnc(CN2CCc3c(cc(CNC(=N)C(F)(F)F)cc3-c3cn(C)nc3C(F)(F)F)C2=O)c1 [Example 120, 2,2,2-Trifluoro-N-((2-((4-methoxypyridin-2-yl)methyl)-5-(1-methyl-3-(trifluoromethyl)-1H-pyrazol-4-yl)-1-oxo-1,2,3,4-tetrahydroisoquinolin-7-yl)methyl)acetimidamide]"
11,0.94,"COc1ccnc(CN2CCc3c(cc(CNC4=NCCO4)cc3-c3cn(C)nc3C)C2=O)c1 [Example 134, 7-(((4,5-Dihydrooxazol-2-yl)amino)methyl)-5-(1,3-dimethyl-1H-pyrazol-4-yl)-2-((4-methoxypyridin-2-yl)methyl)-3,4-dihydroisoquinolin-1(2H)-one]"
12,< 0.05,"COc1ccnc([C@H](C)N2CCc3c(cc(Cn4ccn(C(F)F)c4=N)cc3-c3cn(C)nc3C(F)(F)F)C2=O)c1 [Example 72, (S)-7-((3-(Difluoromethyl)-2-imino-2,3-dihydro-1H-imidazol-1-yl)methyl)-2-(1-(4-methoxypyridin-2-yl)ethyl)-5-(1-methyl-3-(trifluoromethyl)-1H-pyrazol-4-yl)-3,4-dihydroisoquinolin-1(2H)-one]"
13,0.37,"COc1cc(CN2CCc3c(OCC(F)(F)F)cc(Cn4ccn(C)c4=N)cc3C2=O)cc(OC)c1 [Example 73, 2-(3,5-Dimethoxybenzyl)-7-((2-imino-3-methyl-2,3-dihydro-1H-imidazol-1-yl)methyl)-5-(2,2,2-trifluoroethoxy)-3,4-dihydroisoquinolin-1(2H)-one]"
14,< 0.05,"COc1ccnc([C@H](C)N2CCc3c(cc(Cn4ccn(C)c4=N)cc3-c3cn(C)nc3C(F)(F)F)C2=O)c1 [Example 71, (S)-7-((2-Imino-3-methyl-2,3-dihydro-1H-imidazol-1-yl)methyl)-2-(1-(4-methoxypyridin-2-yl)ethyl)-5-(1-methyl-3-(trifluoromethyl)-1H-pyrazol-4-yl)-3,4-dihydroisoquinolin-1(2H)-one]"
15,< 0.05,"COc1ccnc(CN2CCc3c(cc(Cn4ccn(C)c4=N)cc3-c3ccc(F)cc3C)C2=O)c1 [Example 52, 5-(4-fluoro-2-methylphenyl)-7-((2-imino-3-methyl-2,3-dihydro-1H-imidazol-1-yl)methyl)-2-((4-methoxypyridin-2-yl)methyl)-3,4-dihydroisoquinolin-1(2H)-one]"
16,0.095,"CCn1cc(-c2cc(Cc3nccn3C)cc3c2CCN([C@@H](C)c2cc(OC)ccn2)C3=O)c(C(F)(F)F)n1 [Example 254, (S)-5-(1-Ethyl-3-(trifluoromethyl)-1H-pyrazol-4-yl)-2-(1-(4-methoxypyridin-2-yl)ethyl)-7-((1-methyl-1H-imidazol-2-yl)methyl)-3,4-dihydroisoquinolin-1(2H)-one]"
17,2.3,"COc1ccnc(CN2Cc3c(cc(Cn4ccn(C)c4=N)cc3-c3cccnc3C)C2=O)c1 [Example 139, 6-((2-Imino-3-methyl-2,3-dihydro-1H-imidazol-1-yl)methyl)-2-((4-methoxypyridin-2-yl)methyl)-4-(2-methylpyridin-3-yl)isoindolin-1-one]"
18,5.4,"COc1ccnc(CN2CCc3c(cc(Cn4nc5ccccn5c4=N)cc3-c3cn(C)nc3C(F)(F)F)C2=O)c1 [Example 125, 7-((3-Imino-[1,2,4]triazolo[4,3-a]pyridin-2(3H)-yl)methyl)-2-((4-methoxypyridin-2-yl)methyl)-5-(1-methyl-3-(trifluoromethyl)-1H-pyrazol-4-yl)-3,4-dihydroisoquinolin-1(2H)-one]"
19,< 0.05,"COc1ccnc(CN2CCc3c(cc(Cn4ccoc4=N)cc3-c3cn(C)nc3C(F)(F)F)C2=O)c1 [Example 84, 7-((2-Iminooxazol-3(2H)-yl)methyl)-2-((4-methoxypyridin-2-yl)methyl)-5-(1-methyl-3-(trifluoromethyl)-1H-pyrazol-4-yl)-3,4-dihydroisoquinolin-1(2H)-one]"
20,< 0.05,"Cc1cc(C)nc([C@@H](C)N2CCc3c(cc(Cn4ccnc4C)cc3-c3cn(C)nc3C(F)(F)F)C2=O)c1 [Example 166, (R)-2-(1-(4,6-Dimethylpyridin-2-yl)ethyl)-7-((2-methyl-1H-imidazol-1-yl)methyl)-5-(1-methyl-3-(trifluoromethyl)-1H-pyrazol-4-yl)-3,4-dihydroisoquinolin-1(2H)-one]"
21,< 0.05,"Cc1nccn1Cc1cc2c(c(-c3cn(C)nc3C(F)(F)F)c1)CCN(Cc1ccc3ccccc3n1)C2=O [Example 176, 7-((2-Methyl-1H-imidazol-1-yl)methyl)-5-(1-methyl-3-(trifluoromethyl)-1H-pyrazol-4-yl)-2-(quinolin-2-ylmethyl)-3,4-dihydroisoquinolin-1(2H)-one]"
22,0.06,"Cc1cc([C@H](C2CC2)N2CCc3c(cc(Cn4ccn(C)c4=N)cc3-c3ccc(F)cc3C)C2=O)ccc1F [Example 32, (S)-2-(Cyclopropyl(4-fluoro-3-methylphenyl)methyl)-5-(4-fluoro-2-methylphenyl)-7-((2-imino-3-methyl-2,3-dihydro-1H-imidazol-1-yl)methyl)-3,4-dihydroisoquinolin-1(2H)-one]"
23,< 0.05,"CCn1cc(-c2cc(CN3CCSC3=N)cc3c2CCN([C@@H](C)c2cc(OC)ccn2)C3=O)c(C(F)(F)F)n1 [Example 151, (S)-5-(1-Ethyl-3-(trifluoromethyl)-1H-pyrazol-4-yl)-7-((2-iminothiazolidin-3-yl)methyl)-2-(1-(4-methoxypyridin-2-yl)ethyl)-3,4-dihydroisoquinolin-1(2H)-one]"
24,< 0.05,"COc1cc(CN2CCc3c(cc(CN4CCCC4=N)cc3-c3cn(C)nc3C(F)(F)F)C2=O)cc(OC)c1 [Example 109, 2-(3,5-Dimethoxybenzyl)-7-((2-iminopyrrolidin-1-yl)methyl)-5-(1-methyl-3-(trifluoromethyl)-1H-pyrazol-4-yl)-3,4-dihydroisoquinolin-1(2H)-one]"
25,< 0.05,"CCn1cc(-c2cc(Cn3cnn(C)c3=N)cc3c2CCN([C@@H](C)c2cc(OC)ccn2)C3=O)c(C(F)(F)F)n1 [Example 152, (S)-5-(1-ethyl-3-(trifluoromethyl)-1H-pyrazol-4-yl)-7-((5-imino-1-methyl-1,5-dihydro-4H-1,2,4-triazol-4-yl)methyl)-2-(1-(4-methoxypyridin-2-yl)ethyl)-3,4-dihydroisoquinolin-1(2H)-one]"
26,< 0.05,"COc1cc(CN2CCc3c(cc(CN4CCSC4=N)cc3-c3ccc(F)cc3C)C2=O)cc(OC)c1 [Example 100, 2-(3,5-Dimethoxybenzyl)-5-(4-fluoro-2-methylphenyl)-7-((2-iminothiazolidin-3-yl)methyl)-3,4-dihydroisoquinolin-1(2H)-one]"
27,< 0.05,"COc1cc(CN2CCc3c(cc(Cn4ccn(C)c4=N)cc3-c3cn(C)nc3C(F)(F)F)C2=O)cc(OC)c1 [Example 39, 2-(3,5-Dimethoxybenzyl)-7-((2-imino-3-methyl-2,3-dihydro-1H-imidazol-1-yl)methyl)-5-(1-methyl-3-(trifluoromethyl)-1H-pyrazol-4-yl)-3,4-dihydroisoquinolin-1(2H)-one]"

row,Compound,Ki [nM]
1,"COc1cc(CN2CCc3c(OC4CCC4)cc(Cn4ccoc4=N)cc3C2=O)cc(OC)c1 [Example 92, 5-Cyclobutoxy-2-(3,5-dimethoxybenzyl)-7-((2-iminooxazol-3(2H)-yl)methyl)-3,4-dihydroisoquinolin-1(2H)-one]",1.1
